Among all 310,000 compounds or so, about 2,200 (0.71%) showed an effect of 50% or more. Effects have a minus sign here. This is one part of the list.
The compounds below were run against human ether-à-go-go-related gene (hERG) potassium channel (human, UniProt Q12809) (assay: primary screen, population patch clamp on CHO cells stably expressing hERG).
Chain of human ether-à-go-go-related gene (hERG) potassium channel (Q12809 whole entry, looked up): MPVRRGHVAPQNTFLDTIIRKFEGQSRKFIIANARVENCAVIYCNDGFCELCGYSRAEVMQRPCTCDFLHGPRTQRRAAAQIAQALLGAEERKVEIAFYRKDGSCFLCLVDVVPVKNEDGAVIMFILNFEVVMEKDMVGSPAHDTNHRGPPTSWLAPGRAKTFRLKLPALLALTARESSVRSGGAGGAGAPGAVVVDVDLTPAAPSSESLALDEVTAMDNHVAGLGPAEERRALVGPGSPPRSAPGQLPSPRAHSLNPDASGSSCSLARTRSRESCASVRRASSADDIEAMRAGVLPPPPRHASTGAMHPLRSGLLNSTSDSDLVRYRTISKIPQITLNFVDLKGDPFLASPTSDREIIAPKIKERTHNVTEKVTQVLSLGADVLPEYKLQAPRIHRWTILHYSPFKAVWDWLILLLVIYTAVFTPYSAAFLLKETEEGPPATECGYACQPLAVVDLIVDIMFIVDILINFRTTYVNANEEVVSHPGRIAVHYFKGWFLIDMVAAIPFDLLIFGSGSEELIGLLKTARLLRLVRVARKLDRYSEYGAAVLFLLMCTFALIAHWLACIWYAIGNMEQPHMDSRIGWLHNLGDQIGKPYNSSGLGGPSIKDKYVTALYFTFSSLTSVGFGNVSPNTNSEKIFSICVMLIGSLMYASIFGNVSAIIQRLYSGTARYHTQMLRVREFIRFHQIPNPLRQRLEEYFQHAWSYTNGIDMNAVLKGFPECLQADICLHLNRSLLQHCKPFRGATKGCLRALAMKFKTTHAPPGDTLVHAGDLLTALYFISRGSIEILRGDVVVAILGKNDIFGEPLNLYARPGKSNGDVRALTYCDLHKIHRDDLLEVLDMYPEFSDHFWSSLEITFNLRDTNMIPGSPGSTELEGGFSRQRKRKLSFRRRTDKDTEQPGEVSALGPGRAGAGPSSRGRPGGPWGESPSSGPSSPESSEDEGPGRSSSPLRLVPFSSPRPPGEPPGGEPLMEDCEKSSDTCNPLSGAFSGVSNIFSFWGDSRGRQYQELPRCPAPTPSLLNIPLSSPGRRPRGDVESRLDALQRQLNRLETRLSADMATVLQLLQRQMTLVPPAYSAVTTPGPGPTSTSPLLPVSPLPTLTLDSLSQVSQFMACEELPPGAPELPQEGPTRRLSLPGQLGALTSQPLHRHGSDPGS

Row | SMILES | hERG current change (%, negative = inhibition) at 1uM
1 | COc1ccccc1/C=C/C(=O)OCC(=O)Nc1c(C)nn(-c2ccccc2)c1C | 14.2%
2 | O=C(c1ccc(S(=O)(=O)NCc2ccco2)cc1)N1CCCC1 | 9.99%
3 | O=C(c1ccccc1-n1cccc1)N1N=C(C(F)F)CC1(O)C(F)F (centres unmarked) | -10.9%
4 | COc1ccc(C(=O)Oc2ccc(Br)cc2C(=S)N2CCOCC2)cc1 | 6.83%
5 | Cc1cc(=O)oc2c(C)c(OC(=O)c3ccco3)ccc12 | 6.06%
6 | O=C(N/N=C/c1ccc(N2CCOCC2)cc1)C1COc2ccccc2O1 (centres unmarked) | 3.08%
7 | COc1ccc(NC(=O)c2ccco2)c(NC(=O)Cc2cccs2)c1 | 10.7%
8 | CCCc1ccc(C(=O)NNc2ccccc2F)cc1 | 10.8%
9 | O=C(O)c1ccc2c3c(ncnc13)-c1ccccc1C2=O | -10.1%
10 | CCN(CC)S(=O)(=O)c1ccc(NC(=O)CN(c2cccc(F)c2)S(C)(=O)=O)cc1 | 16%
11 | Cc1cc(Cl)ccc1OC(C)C(=O)Nc1ccc(C(=O)Nc2ccccc2C(=O)O)cc1 (centres unmarked) | 14.5%
12 | CCN(CC)c1ccc(NC(=O)c2cccc(C)c2)cc1S(=O)(=O)Nc1ccccc1OC | 11.2%
13 | CC(C)[C@H](NS(=O)(=O)c1ccc2c(c1)OCCO2)C(=O)OCC(=O)Nc1cccc(Cl)c1Cl | 0.0262%
14 | COC(=O)COc1ccc(S(=O)(=O)N2CCN(c3ccccc3)CC2)cc1 | 16.6%
15 | O=C(O)c1ccccc1Sc1ccccc1S(=O)(=O)NC1CCCCC1 | 16.3%
16 | CC1(C)Cc2cccc(Oc3ccc(S(=O)(=O)N4CCCCC4)cn3)c2O1 | 5.66%
17 | COc1ccc(C(=O)C2CCCCC2=O)cc1 (centres unmarked) | 10.9%
18 | COc1ccccc1N(C)S(=O)(=O)c1ccc(C(=O)O)cc1 | 9.34%
19 | Cc1cc(-c2ccc(C)c(S(=O)(=O)NCC3CCN(Cc4cccc(F)c4)CC3)c2)on1 | 3.78%
20 | COc1ccccc1CNC(=O)COC(=O)c1cccc(S(=O)(=O)N2CCOCC2)c1 | -18%
21 | COc1ccc(/C(C)=N/NC(=O)c2nnn(-c3nonc3N)c2-c2cccs2)cc1OC | 7.9%
22 | O=C(O)C(Oc1ccc2c3c(c(=O)oc2c1)CCC3)c1ccccc1 (centres unmarked) | -4.33%
23 | Cc1cc(C(=O)NNC(=O)c2c(-c3c(Cl)cccc3Cl)noc2C)no1 | 10.1%

From paper PMC4336329 (PLoS ONE, 2015)
